# The supplement of paper PMC9446081
# About 220 (0.56%) of roughly 39,000 compounds showed activity. This is one part of the list.
# System: Escherichia coli K-12 BW25113
# Test: relative growth (OD600 normalised to plate interquartile mean) (fraction); higher = less growth inhibition, active = 0.2 or less
# Conditions: 50 µM; LB; incubation time: overnight (16-24 h)
# 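Also: static incubation at 37 °C against the wild-type strain, values averaged over two biological replicates.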
row,Compound,relative growth
1,CC(=O)NCCc1ccc(O)c(-c2c(O)c(O)c3c(c2O)C(=O)c2c(cc(O)c(C(=O)O)c2C(=O)O)C3=O)c1,inactive: 1.05
2,O=C(O)CCCNC(=O)c1ccccn1,inactive: 0.965
3,CO[C@H]1CN(C)C(=O)c2cc(NC(=O)C3CCOCC3)ccc2OC[C@H](C)N(Cc2cccnc2)C[C@@H]1C,inactive: 0.984
4,C[C@@H]1CCCCO[C@@H](CN(C)C(=O)CCC(F)(F)F)[C@@H](C)CN([C@@H](C)CO)C(=O)c2cc(NS(=O)(=O)c3ccc(Cl)cc3)ccc2O1,inactive: 0.981
5,Cc1noc(C)c1S(=O)(=O)Nc1ccc2c(c1)C(=O)N([C@@H](C)CO)C[C@H](C)[C@@H](CN(C)C(=O)Nc1ccccc1)OCCCC[C@@H](C)O2,inactive: 0.984
6,COc1ccc(NC(=O)Nc2ccc3c(c2)CC(=O)N([C@@H](C)CO)C[C@H](C)[C@H](CN(C)S(=O)(=O)c2cn(C)cn2)O3)cc1,inactive: 1.01
7,Cc1noc(C)c1S(=O)(=O)Nc1cccc2c1O[C@H](CN(C)S(=O)(=O)c1ccc(Cl)cc1)[C@H](C)CN([C@H](C)CO)C2=O,inactive: 1.02
8,COCCOC(=O)N1C(=O)[C@@]2(c3cc(C#CCCO)ccc31)[C@H](c1ccc(O)cc1)N1[C@H](c3ccccc3)[C@H](c3ccccc3)OC(=O)[C@H]1[C@@H]2C(=O)N1CCc2cc(OC)c(OC)cc2C1,inactive: 0.999
9,COc1cc(/C=C/C(=O)O[C@H]2CC[C@]34C[C@]35CC[C@]3(C)[C@@H]([C@@H](C)CCC=C(C)C)CC[C@@]3(C)[C@@H]5CC[C@@H]4C2(C)C)ccc1O,inactive: 0.957
10,C[C@@H]1CCCCO[C@H](CN(C)C(=O)Nc2ccccc2)[C@H](C)CN([C@@H](C)CO)C(=O)c2cc(NS(=O)(=O)c3ccccc3)ccc2O1,inactive: 1
11,C=CC[C@H](CC(=O)NCCO)C(=O)NC[C@@H](OC(=O)[C@H](CC=C)CC(=O)OC(C)(C)C)c1ccccc1,inactive: 0.984
12,C[C@@H]1CN([C@@H](C)CO)C(=O)c2cc(NC(=O)c3ccccc3)ccc2O[C@@H](C)CCCCO[C@@H]1CN(C)C(=O)Nc1cccc2ccccc12,inactive: 1.02
13,CCC1OC(=O)C(C)C(OC2CC(C)(OC)C(O)C(C)O2)C(C)C(OC2OC(C)CC(N(C)C)C2O)C(C)(OC)CC(C)C(=O)C(C)C(O)C1(C)O (stereo unspecified),inactive: 0.536
14,C#CCOc1ccc(-c2c(C(=O)NC3CCCCC3)oc(OC)c2S(=O)(=O)c2ccc(Cl)cc2)cc1,inactive: 1.02
15,[N-]=[N+]=N[C@]1(CO)O[C@@H](n2ccc(N)nc2=O)[C@@H](O)[C@@H]1O,inactive: 1.02
16,CC(=O)OCC(=O)C1(O)CCC2C3CCC4=CC(=O)CCC4(C)C3(F)C(O)CC21C (stereo unspecified),inactive: 1.11
17,O=C(C[C@H]1CC[C@@H]2[C@H](COC[C@@H](O)CN2C(=O)Nc2cccc(F)c2)O1)NCc1ccccc1Cl,inactive: 0.987
18,C[C@H](CO)N1C[C@H](C)[C@H](CN(C)Cc2ccc(Cl)c(Cl)c2)Oc2ccc(NC(=O)Nc3ccc(F)cc3)cc2C1=O,inactive: 1.01
19,C[C@H]1CCCCO[C@@H](CN(C)C(=O)C2CCCCC2)[C@@H](C)CN([C@@H](C)CO)C(=O)c2cc(NS(=O)(=O)c3ccccc3)ccc2O1,inactive: 1.03

row,Compound,relative growth
1,O=C(C[C@@H]1CC=CCCC(=O)OC[C@H](Cc2c[nH]c3ccccc23)NC1=O)N[C@H](CO)Cc1ccccc1,inactive: 0.985
2,Cc1noc(C)c1S(=O)(=O)N(C)C[C@H]1Oc2c(NC(=O)C3CC3)cccc2C(=O)N([C@@H](C)CO)C[C@H]1C,inactive: 1.01
3,C[C@@H]1CN([C@H](C)CO)C(=O)c2cc(NS(=O)(=O)c3cccs3)ccc2O[C@@H](C)CCCCO[C@@H]1CN(C)C(=O)NC1CCCCC1,inactive: 1
4,C[C@@H]1CN([C@H](C)CO)C(=O)c2ccccc2-c2ccccc2CO[C@@H]1CN(C)Cc1ccc(C(F)(F)F)cc1,inactive: 0.992
5,C[C@H](CO)N1C[C@H](C)[C@@H](CN(C)S(C)(=O)=O)Oc2ccc(NS(=O)(=O)c3cn(C)cn3)cc2CC1=O,inactive: 0.999
6,C[N+](C)(C)CCCCNC(=O)[C@H]1C[C@H]2C(=O)N[C@@H](Cc3ccccc3)C(=O)N2[C@H]1c1cccc(OCCO)c1,inactive: 1.02
7,C[C@@H]1CCCCO[C@H](CN(C)S(=O)(=O)c2cn(C)cn2)[C@@H](C)CN([C@H](C)CO)C(=O)c2cc(NS(=O)(=O)c3cn(C)cn3)ccc2O1,inactive: 0.972
8,C[C@@H]1CN([C@H](C)CO)C(=O)c2cc(NS(=O)(=O)c3ccccc3)ccc2O[C@@H](C)CCCCO[C@@H]1CN(C)S(C)(=O)=O,inactive: 0.995
9,C[C@H]1CCCCO[C@H](CN(C)CC2CCCCC2)[C@@H](C)CN([C@@H](C)CO)C(=O)c2cc(NC(=O)Nc3ccc4c(c3)OCO4)ccc2O1,inactive: 0.868
10,COc1ccc2c3c([nH]c2c1)[C@H](CO)N(C[C@]13CCN(CC1)CC1CCCCC1)C(=O)Nc1c(noc1C)C,inactive: 1.01
11,C[C@H](CO)N1C[C@H](C)[C@@H](CN(C)Cc2ccccc2)OCCCC[C@H](C)Oc2ccc(NC(=O)C3CCCCC3)cc2C1=O,inactive: 1.01
12,C[C@@H]1CN([C@@H](C)CO)C(=O)Cc2cc(NS(=O)(=O)c3ccc(Cl)cc3)ccc2O[C@H]1CN(C)Cc1ccc(C(=O)Nc2ccccc2N)cc1,inactive: 1.01
13,COc1ccc([Si](C)(C)[C@H]2[C@H](CCOC(=O)NCCCCCC(=O)NO)O[C@@]3(C(=O)N(Cc4ccccc4)c4ccc(I)cc43)[C@@H]2C)cc1,inactive: 1.01
14,CN1C(=O)c2cc(NC(=O)C3CCOCC3)ccc2OC[C@H]2O[C@@H](CC(=O)NCc3ccc4c(c3)OCO4)CC[C@H]21,inactive: 0.999
15,Cc1noc(C)c1S(=O)(=O)N(C)C[C@@H]1OCCCC[C@H](C)Oc2ccc(NS(C)(=O)=O)cc2C(=O)N([C@H](C)CO)C[C@H]1C,inactive: 0.987
16,C[C@H]1CN([C@@H](C)CO)C(=O)c2cccc(NC(=O)c3ccncc3)c2O[C@@H]1CN(C)S(=O)(=O)c1ccccc1,inactive: 1.01
17,C[C@@H]1CN([C@H](C)CO)C(=O)c2c(c3ccccc3n2C)-c2ccccc2CO[C@H]1CN(C)Cc1cccc2c1OCCCO2,inactive: 1.01
18,C[C@H](CO)N1C[C@H](C)[C@H](CN(C)Cc2ccc(C(=O)Nc3ccccc3N)cc2)Oc2ccc(NC(=O)NC3CCCCC3)cc2C1=O,inactive: 0.996
19,C[C@@H]1CCCCO[C@@H](CN(C)C(=O)Nc2ccc(C(F)(F)F)cc2)[C@H](C)CN([C@H](C)CO)C(=O)c2cc(NC(=O)c3ccncc3)ccc2O1,inactive: 0.902

row,Compound,relative growth
1,COc1cc(C[C@H]2CO[C@H](c3ccc(O)c(OC)c3)[C@@H]2CO[C@H]2O[C@@H](CO)[C@@H](O)[C@@H](O)[C@@H]2O)ccc1O,inactive: 0.946
2,O=C(C[C@@H]1C[C@H]2c3cc(NC(=O)Nc4ccc(C(F)(F)F)cc4)ccc3O[C@H]2[C@@H](CO)O1)NCCc1ccccc1,inactive: 1.02
3,C[C@H]1CCCCO[C@@H](CN(C)C(=O)c2ccncc2)[C@@H](C)CN([C@@H](C)CO)C(=O)c2cc(NC(=O)C3CCCCC3)ccc2O1,inactive: 1.04
4,C[C@@H]1CN([C@H](C)CO)C(=O)c2cc(C#CC3(O)CCCC3)cnc2O[C@@H]1CN(C)S(=O)(=O)c1ccccc1,inactive: 0.978
5,CC(C)=CC[N+]1(C)CCCCC1,inactive: 0.999
6,CC(C)NC(=O)Nc1cccc2c1O[C@H](CN(C)S(=O)(=O)c1ccc(Cl)cc1)[C@@H](C)CN([C@H](C)CO)C2=O,inactive: 0.92
7,CCCC#Cc1ccc2c(c1)O[C@@H](CN(C)C(=O)c1cnccn1)[C@@H](C)CN([C@H](C)CO)S2(=O)=O,inactive: 0.971
8,C[C@H]1CN([C@@H](C)CO)C(=O)c2cccc(NC(=O)Nc3ccc(C(F)(F)F)cc3)c2O[C@H]1CN(C)Cc1ccccc1,inactive: 0.977
9,CCCCCCCCCCCCCCCCOc1nc2ccc(C)cc2c(=O)o1,inactive: 1.02
10,C[C@@H]1CN([C@@H](C)CO)C(=O)c2cccc(NS(=O)(=O)c3ccc(Cl)cc3)c2O[C@@H]1CN(C)S(C)(=O)=O,inactive: 0.962
11,O=C(N1CCOCC1)[C@@]1(CCS(=O)(=O)c2ccccc2)COC(c2ccc(OCCCO)cc2)=N1,inactive: 0.941
12,O=C(Nc1cccc2cccnc12)[C@@H]1[C@H](c2ccc(Br)cc2)CC(=O)N1c1ccc(C(F)(F)F)cc1,inactive: 1.03
13,C[C@@H]1CN([C@H](C)CO)C(=O)Cc2cc(NC(=O)c3ccncc3)ccc2O[C@H]1CN(C)S(=O)(=O)c1ccccc1,inactive: 0.973
14,COc1cccc(NC(=O)N[C@H]2CC[C@@H](CC(=O)N3CCN(C)CC3)O[C@@H]2CO)c1,inactive: 0.986
15,CC(=O)N(C)C[C@H]1Oc2ncc(C#C[C@H](C)O)cc2C(=O)N([C@H](C)CO)C[C@@H]1C,inactive: 0.98
16,C[C@@H]1CN([C@H](C)CO)C(=O)c2cccc(NC(=O)C3CCOCC3)c2O[C@@H]1CN(C)C(=O)Nc1ccccc1,inactive: 1
17,Cc1noc(C)c1NC(=O)Nc1ccc2c(c1)C(=O)N([C@@H](C)CO)C[C@@H](C)[C@H](CN(C)C(=O)Nc1cccc3ccccc13)OCCCC[C@@H](C)O2,inactive: 0.989
18,C[C@@H]1CN([C@@H](C)CO)C(=O)Cc2cc(NC(=O)CCC(F)(F)F)ccc2O[C@H]1CN(C)Cc1ccc(C(F)(F)F)cc1,inactive: 1.01
